Results: the supplement of paper PMC3334620
In all, about 33,000 sequences were measured (“E-score (-0.5 to 0.5)”: median about -0.035, highest 2% from about 0.34 on). The list shows a part of the results.

Molecular target: T1, Mot3 (UniProt P54785)
T1 sequence: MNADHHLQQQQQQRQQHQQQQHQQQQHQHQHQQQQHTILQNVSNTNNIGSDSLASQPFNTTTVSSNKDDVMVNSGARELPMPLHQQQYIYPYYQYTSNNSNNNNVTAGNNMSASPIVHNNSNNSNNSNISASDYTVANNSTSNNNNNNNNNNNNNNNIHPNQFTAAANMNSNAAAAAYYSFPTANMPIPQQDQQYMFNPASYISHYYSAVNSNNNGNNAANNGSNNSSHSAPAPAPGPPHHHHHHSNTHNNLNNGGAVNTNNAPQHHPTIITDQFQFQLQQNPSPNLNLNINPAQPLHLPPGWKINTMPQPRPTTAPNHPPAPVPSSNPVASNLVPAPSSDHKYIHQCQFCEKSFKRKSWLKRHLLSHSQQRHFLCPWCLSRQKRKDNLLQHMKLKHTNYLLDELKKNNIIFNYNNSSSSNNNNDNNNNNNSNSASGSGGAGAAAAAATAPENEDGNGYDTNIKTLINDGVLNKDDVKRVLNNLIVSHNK
Assay: PBM E-score (8-mer binding enrichment) (E-score (-0.5 to 0.5)); higher = stronger / more preferred TF binding; most listed sequences are background and not binding sites
Settings: protein concentration: 200 nM; construct: GST-full length
Summary of the method: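 Universal all-10-mer Agilent arrays, double-stranded by primer extension on fresh or once-stripped slides, were probed with about 100-200 nM GST-tagged yeast transcription factors made by PURExpress. Fluorescent anti-GST detected bound protein, and masliner normalised the scans. E-scores from the Universal PBM Analysis Suite were given to each ungapped eight-base word pooled with its reverse complement.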

| Sequence | PBM E-score |
| --- | --- |
| CCTTAGAC | -0.0807 |
| AATATAAT | 0.152 |
| CCGACGAC | -0.121 |
| AAGGTGAT | 0.0482 |
| CGTGCCAG | -0.22 |
| AGGCAGCA | 0.266 |
| CGTCTACA | 0.0367 |
| AACGGATG | -0.164 |
| TGGCCGAA | -0.05 |
| GTTCGGTA | 0.0592 |
| CTCTCATA | -0.0957 |
| GCCTGCAC | 0.169 |
| ACGCGGGA | -0.062 |
| ACCAAATA | 0.212 |
| CGCCACGA | -0.288 |
| ACTTTGTG | 0.0798 |
| GTTACATA | 0.333 |
| ACTTCTGG | -0.0801 |
| ATCTGAAC | -0.219 |
| CAGCATTC | -0.153 |
| AGTCGCTC | -0.141 |
| CCCTAAGC | -0.288 |
| CGTGCGCA | -0.104 |
| CAGGGTGA | -0.136 |
| CAAGTCTG | -0.0796 |

| Sequence | PBM E-score |
| --- | --- |
| CCAACATA | 0.231 |
| CATGACAC | 0.273 |
| CGATGCTA | -0.158 |
| TCAAGTGA | -0.127 |
| CTACGGGC | 0.0837 |
| AAGCATTA | 0.0708 |
| AATATTGA | -0.0056 |
| CAATGCGC | -0.116 |
| TGGGAAAA | -0.249 |
| TCTCAGAA | -0.0878 |
| CCGTAGCG | -0.31 |
| ATCATCAC | 0.0244 |
| CTGGGGAA | -0.0729 |
| TAATTGTA | 0.284 |
| AGAACCTC | -0.139 |
| CAGGTAGC | -0.114 |
| CCTCATCC | -0.061 |
| ACACCGTA | 0.0343 |
| ACTTCGCA | -0.0318 |
| ACCGACAC | -0.0544 |
| ACCGGGCC | -0.238 |
| AGGTATAC | 0.0727 |
| GCTTTGAC | -0.0117 |
| ATGCTCCA | -0.164 |
| GAATTCGC | -0.0535 |

| Sequence | PBM E-score |
| --- | --- |
| AAAAGAGG | -0.0765 |
| CGACGCCG | -0.183 |
| GACGTATC | -0.108 |
| CAATCTCG | -0.0776 |
| AAGGACGA | -0.213 |
| TCCAACAA | 0.166 |
| ACTAACAA | 0.249 |
| TAGTAGGA | -0.0994 |
| GACGTGCA | 0.0302 |
| CCCTACCC | -0.232 |
| GCAAACGC | -0.0363 |
| AATATTCG | -0.037 |
| AGGCCTCG | -0.243 |
| AGATGACT | -0.223 |
| ATTTCATA | 0.0365 |
| ACTACATG | 0.362 |
| CGCGGCAA | -0.11 |
| GTACTTGA | 0.0103 |
| CCTCGTAG | 0.0397 |
| CGGATACG | -0.0559 |
| ATCTACGG | -0.0777 |
| CAGTCGGC | -0.225 |
| ACAAAGAG | -0.0148 |
| GTCAGGCA | 0.469 |
| CCAGCCAA | -0.0801 |

| Sequence | PBM E-score |
| --- | --- |
| AGCTCACT | -0.198 |
| AGCTATCG | -0.183 |
| CTTAACGA | -0.0262 |
| CGTGTTGA | 0.395 |
| CGTTGCTA | -0.0303 |
| AGTTCGTG | 0.0915 |
| AGCGGCTA | -0.132 |
| ATTGCGCC | -0.124 |
| AGACATAG | 0.0586 |
| TCAATGAA | 0.0702 |
| GGATCCCA | -0.258 |
| GCACCTAC | 0.245 |
| TAGACCAA | 0.0112 |
| CAGTCAAG | 0.0866 |
| AGAACACA | 0.225 |
| AGGTTAGC | -0.047 |
| CTATGTGA | 0.143 |
| CGAACATA | 0.0848 |
| AAAAAATC | 0.0876 |
| CAGTGATG | -0.115 |
| ACCTGCCG | -0.0578 |
| ACCTTCTC | -0.0576 |
| ACTTGGAC | -0.0657 |
| GGGGGGAC | -0.254 |
| CCGCTGAG | -0.213 |

| Sequence | PBM E-score |
| --- | --- |
| CCAGTGGC | -0.148 |
| TAAAATGA | 0.144 |
| GGGCTGAC | -0.119 |
| AAGTAGAG | -0.122 |
| CTATTACC | 0.142 |
| ACGGGTAC | -0.0236 |
| ACACATCT | 0.287 |
| CCCACTAA | -0.103 |
| AATAAGTG | -0.0601 |
| AGCTTCTA | -0.162 |
| AAGGTCGG | -0.169 |
| ATGACCCC | -0.15 |
| AGAAATGA | -0.0307 |
| TACCAGAA | 0.012 |
| CGTTCGAC | -0.112 |
| ACCGACTC | -0.169 |
| AAGGTTAC | 0.0496 |
| AAATGGCT | -0.0906 |
| ATTCAATG | -0.0471 |
| TACAGCGA | -0.184 |
| CGGGTGTA | 0.0975 |
| GCTTTCCC | -0.345 |
| CTTGTACC | 0.176 |
| AGCTCGTA | -0.0445 |
| TGCATGCA | 0.157 |

| Sequence | PBM E-score |
| --- | --- |
| ATCGTCTC | -0.198 |
| ACTACTAC | 0.106 |
| CTTTAGGC | 0.207 |
| ACGTACAA | 0.258 |
| CCCTAGCC | -0.354 |
| CAGAGTCC | -0.184 |
| CCCAGCTC | -0.376 |
| GAATCCTC | -0.161 |
| CGTGGCAC | 0.0988 |
| ATGACGCA | 0.00754 |
| CTCAACGA | -0.178 |
| ATGGGAGG | -0.0718 |
| GCCCGGCA | -0.243 |
| ATACGTCA | 0.0159 |
| ACCTCCCA | -0.12 |
| ATGTTCTA | 0.127 |
| AAACTTGC | 0.0978 |
| AGCGGTCG | -0.237 |
| CCCCAGAG | -0.196 |
| ACCCACTC | -0.122 |
| AATTGACT | -0.0175 |
| AAAGGTGT | 0.105 |
| CAGGACTC | -0.104 |
| CCTTATTA | 0.102 |
| AAGGCATT | 0.362 |

| Sequence | PBM E-score |
| --- | --- |
| GACGACGC | -0.155 |
| CGTGTCAC | 0.157 |
| CACGTACC | 0.143 |
| ATCGGCCA | -0.35 |
| ACCAGCCA | -0.131 |
| CCGTCGGA | -0.134 |
| GGCTGCTA | -0.111 |
| AGTGCCAT | 0.0123 |
| GACCAATA | 0.034 |
| GCACTAGC | -0.122 |
| CCGCCCTC | -0.324 |
| CTAGCTGC | -0.229 |
| CAAGTTTC | -0.0401 |
| ACCATGCT | -0.0411 |
| ACCCACAA | 0.106 |
| GACTGACC | -0.185 |
| CAACTCGG | -0.134 |
| TCCATTCA | -0.201 |
| AGAGCAGC | -0.053 |
| GCTGTGAA | 0.0424 |
| CCTTGCAA | -0.0849 |
| TGCGTAAA | 0.342 |
